Results: paper PMC12820563
The other results are listed elsewhere or left out. The list includes weakly bound sequences.

molecular target: T1, MBP-FoxP3dN (UniProt Q99JB6); experiment: PD-seq (MBP pull-down with sequencing); settings: 20 mM Tris-HCl pH 7.5, 100 mM NaCl, 1.5 mM MgCl2, 0.4 uM protein, 0.1 uM dsDNA library, 30 min, room temperature, amylose pull-down; high values mean tight binding; double strand, one strand shown
T1 sequence: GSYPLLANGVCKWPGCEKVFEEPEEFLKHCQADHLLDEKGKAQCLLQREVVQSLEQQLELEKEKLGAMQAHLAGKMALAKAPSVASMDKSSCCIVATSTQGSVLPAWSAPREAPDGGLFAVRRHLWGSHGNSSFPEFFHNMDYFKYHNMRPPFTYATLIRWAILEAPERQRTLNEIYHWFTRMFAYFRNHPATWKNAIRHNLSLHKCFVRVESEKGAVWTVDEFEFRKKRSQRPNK

Row | Sequence | binding signal (RPM ratio (pull-down/input))
1 | GATGATTGTTCTCCCAGCTGATGAATTCACGTGATCGAGTAAACAAATTTTCCTAATCTTTCTGTTCAAGCGCCATCTAC | 0.356
2 | GATGATTGTTCTCCCAGCTGATGAATTCTCTAATTCGAGTAAACAAATTTTCCTAATCTTTCTGTTCAAGCGCCATCTAC | 0.248
3 | GATGATTGTTCTCCCAGCTGATGAATTGTCTTCCTCGAGTAAACAAATTTTCCTAATCTTTCTGTTCAAGCGCCATCTAC | 0.391
4 | GATGATTGTTCTCCCAGCTGATGAATTCAATTGTTCGAGTAAACAAATTTTCCTAATCTTTCTGTTCAAGCGCCATCTAC | 3.36
5 | GATGATTGTTCTCCCAGCTGATGAATTCATGAAATCGAGTAAACAAATTTTCCTAATCTTTCTGTTCAAGCGCCATCTAC | 0.289
6 | GATGATTGTTCTCCCAGCTGATGAATTGGCCATGTCGAGTAAACAAATTTTCCTAATCTTTCTGTTCAAGCGCCATCTAC | 0.522
7 | GATGATTGTTCTCCCAGCTGATGAATTGTTGACTTCGAGTAAACAAATTTTCCTAATCTTTCTGTTCAAGCGCCATCTAC | 4.19
8 | GATGATTGTTCTCCCAGCTGATGAATTCACTAACTCGAGTAAACAAATTTTCCTAATCTTTCTGTTCAAGCGCCATCTAC | 0.304
9 | GATGATTGTTCTCCCAGCTGATGAATTCTTTGTCTCGAGTAAACAAATTTTCCTAATCTTTCTGTTCAAGCGCCATCTAC | 0.413
10 | GATGATTGTTCTCCCAGCTGATGAATTAATGAAGTCGAGTAAACAAATTTTCCTAATCTTTCTGTTCAAGCGCCATCTAC | 0.213
11 | GATGATTGTTCTCCCAGCTGATGAATTTTCGGAATCGAGTAAACAAATTTTCCTAATCTTTCTGTTCAAGCGCCATCTAC | 0.225
12 | GATGATTGTTCTCCCAGCTGATGAATTCGTCGATTCGAGTAAACAAATTTTCCTAATCTTTCTGTTCAAGCGCCATCTAC | 0.371
13 | GATGATTGTTCTCCCAGCTGATGAATTTTGAACGTCGAGTAAACAAATTTTCCTAATCTTTCTGTTCAAGCGCCATCTAC | 0.378
14 | GATGATTGTTCTCCCAGCTGATGAATTGAATACTTCGAGTAAACAAATTTTCCTAATCTTTCTGTTCAAGCGCCATCTAC | 0.488
15 | GATGATTGTTCTCCCAGCTGATGAATTGAGTCAGTCGAGTAAACAAATTTTCCTAATCTTTCTGTTCAAGCGCCATCTAC | 0.366
16 | GATGATTGTTCTCCCAGCTGATGAATTATACATATCGAGTAAACAAATTTTCCTAATCTTTCTGTTCAAGCGCCATCTAC | 0.795
17 | GATGATTGTTCTCCCAGCTGATGAATTACTGGGCTCGAGTAAACAAATTTTCCTAATCTTTCTGTTCAAGCGCCATCTAC | 0.26
18 | GATGATTGTTCTCCCAGCTGATGAATTTGTCTTATCGAGTAAACAAATTTTCCTAATCTTTCTGTTCAAGCGCCATCTAC | 3.64
19 | GATGATTGTTCTCCCAGCTGATGAATTTTAAGCTTCGAGTAAACAAATTTTCCTAATCTTTCTGTTCAAGCGCCATCTAC | 0.253
20 | GATGATTGTTCTCCCAGCTGATGAATTAACTAACTCGAGTAAACAAATTTTCCTAATCTTTCTGTTCAAGCGCCATCTAC | 0.278
21 | GATGATTGTTCTCCCAGCTGATGAATTGAATGGATCGAGTAAACAAATTTTCCTAATCTTTCTGTTCAAGCGCCATCTAC | 0.298

Row | Sequence | binding signal (RPM ratio (pull-down/input))
22 | GATGATTGTTCTCCCAGCTGATGAATTGGCGCGTTCGAGTAAACAAATTTTCCTAATCTTTCTGTTCAAGCGCCATCTAC | 1.44
23 | GATGATTGTTCTCCCAGCTGATGAATTCGTTCAGTCGAGTAAACAAATTTTCCTAATCTTTCTGTTCAAGCGCCATCTAC | 0.271
24 | GATGATTGTTCTCCCAGCTGATGAATTGGCTCCTTCGAGTAAACAAATTTTCCTAATCTTTCTGTTCAAGCGCCATCTAC | 0.297
25 | GATGATTGTTCTCCCAGCTGATGAATTTGAGGTATCGAGTAAACAAATTTTCCTAATCTTTCTGTTCAAGCGCCATCTAC | 0.815
26 | GATGATTGTTCTCCCAGCTGATGAATTCTATCCATCGAGTAAACAAATTTTCCTAATCTTTCTGTTCAAGCGCCATCTAC | 0.458
27 | GATGATTGTTCTCCCAGCTGATGAATTGTGTCAATCGAGTAAACAAATTTTCCTAATCTTTCTGTTCAAGCGCCATCTAC | 1.11
28 | GATGATTGTTCTCCCAGCTGATGAATTCCATCAATCGAGTAAACAAATTTTCCTAATCTTTCTGTTCAAGCGCCATCTAC | 0.327
29 | GATGATTGTTCTCCCAGCTGATGAATTGTTGGTCTCGAGTAAACAAATTTTCCTAATCTTTCTGTTCAAGCGCCATCTAC | 4.36
30 | GATGATTGTTCTCCCAGCTGATGAATTCGCTATGTCGAGTAAACAAATTTTCCTAATCTTTCTGTTCAAGCGCCATCTAC | 1.16
31 | GATGATTGTTCTCCCAGCTGATGAATTCACGCAGTCGAGTAAACAAATTTTCCTAATCTTTCTGTTCAAGCGCCATCTAC | 0.848
32 | GATGATTGTTCTCCCAGCTGATGAATTTGCCGGTTCGAGTAAACAAATTTTCCTAATCTTTCTGTTCAAGCGCCATCTAC | 0.543
33 | GATGATTGTTCTCCCAGCTGATGAATTATGTGATTCGAGTAAACAAATTTTCCTAATCTTTCTGTTCAAGCGCCATCTAC | 4.32
34 | GATGATTGTTCTCCCAGCTGATGAATTCCATGCGTCGAGTAAACAAATTTTCCTAATCTTTCTGTTCAAGCGCCATCTAC | 0.688
35 | GATGATTGTTCTCCCAGCTGATGAATTCATCGCGTCGAGTAAACAAATTTTCCTAATCTTTCTGTTCAAGCGCCATCTAC | 0.63
36 | GATGATTGTTCTCCCAGCTGATGAATTGGTGGAGTCGAGTAAACAAATTTTCCTAATCTTTCTGTTCAAGCGCCATCTAC | 0.38
37 | GATGATTGTTCTCCCAGCTGATGAATTGCTGGGCTCGAGTAAACAAATTTTCCTAATCTTTCTGTTCAAGCGCCATCTAC | 0.399
38 | GATGATTGTTCTCCCAGCTGATGAATTTGGGAGCTCGAGTAAACAAATTTTCCTAATCTTTCTGTTCAAGCGCCATCTAC | 0.275
39 | GATGATTGTTCTCCCAGCTGATGAATTTAGGTATTCGAGTAAACAAATTTTCCTAATCTTTCTGTTCAAGCGCCATCTAC | 1.37
40 | GATGATTGTTCTCCCAGCTGATGAATTCGAAGTATCGAGTAAACAAATTTTCCTAATCTTTCTGTTCAAGCGCCATCTAC | 0.441
41 | GATGATTGTTCTCCCAGCTGATGAATTGGCAAAATCGAGTAAACAAATTTTCCTAATCTTTCTGTTCAAGCGCCATCTAC | 0.254
42 | GATGATTGTTCTCCCAGCTGATGAATTAAGCATCTCGAGTAAACAAATTTTCCTAATCTTTCTGTTCAAGCGCCATCTAC | 6.6

Row | Sequence | binding signal (RPM ratio (pull-down/input))
43 | GATGATTGTTCTCCCAGCTGATGAATTGGCTCGGTCGAGTAAACAAATTTTCCTAATCTTTCTGTTCAAGCGCCATCTAC | 0.268
44 | GATGATTGTTCTCCCAGCTGATGAATTGATAACGTCGAGTAAACAAATTTTCCTAATCTTTCTGTTCAAGCGCCATCTAC | 0.445
45 | GATGATTGTTCTCCCAGCTGATGAATTCCGTCGTTCGAGTAAACAAATTTTCCTAATCTTTCTGTTCAAGCGCCATCTAC | 0.747
46 | GATGATTGTTCTCCCAGCTGATGAATTCCTTCTCTCGAGTAAACAAATTTTCCTAATCTTTCTGTTCAAGCGCCATCTAC | 0.225
47 | GATGATTGTTCTCCCAGCTGATGAATTCACTGACTCGAGTAAACAAATTTTCCTAATCTTTCTGTTCAAGCGCCATCTAC | 0.233
48 | GATGATTGTTCTCCCAGCTGATGAATTCGGATGTTCGAGTAAACAAATTTTCCTAATCTTTCTGTTCAAGCGCCATCTAC | 0.89
49 | GATGATTGTTCTCCCAGCTGATGAATTCGTGCCATCGAGTAAACAAATTTTCCTAATCTTTCTGTTCAAGCGCCATCTAC | 2.18
50 | GATGATTGTTCTCCCAGCTGATGAATTGCAACTATCGAGTAAACAAATTTTCCTAATCTTTCTGTTCAAGCGCCATCTAC | 4.55
51 | GATGATTGTTCTCCCAGCTGATGAATTGGCTTGGTCGAGTAAACAAATTTTCCTAATCTTTCTGTTCAAGCGCCATCTAC | 1.08
52 | GATGATTGTTCTCCCAGCTGATGAATTACTAACATCGAGTAAACAAATTTTCCTAATCTTTCTGTTCAAGCGCCATCTAC | 2.2
53 | GATGATTGTTCTCCCAGCTGATGAATTCAAAGCATCGAGTAAACAAATTTTCCTAATCTTTCTGTTCAAGCGCCATCTAC | 0.742
54 | GATGATTGTTCTCCCAGCTGATGAATTTCAGGTATCGAGTAAACAAATTTTCCTAATCTTTCTGTTCAAGCGCCATCTAC | 0.479
55 | GATGATTGTTCTCCCAGCTGATGAATTTCACAAGTCGAGTAAACAAATTTTCCTAATCTTTCTGTTCAAGCGCCATCTAC | 0.232
56 | GATGATTGTTCTCCCAGCTGATGAATTGTCGGTTTCGAGTAAACAAATTTTCCTAATCTTTCTGTTCAAGCGCCATCTAC | 0.597
57 | GATGATTGTTCTCCCAGCTGATGAATTTGAAGGGTCGAGTAAACAAATTTTCCTAATCTTTCTGTTCAAGCGCCATCTAC | 0.388
58 | GATGATTGTTCTCCCAGCTGATGAATTCTGTCCATCGAGTAAACAAATTTTCCTAATCTTTCTGTTCAAGCGCCATCTAC | 0.788
59 | GATGATTGTTCTCCCAGCTGATGAATTTCCGTGTTCGAGTAAACAAATTTTCCTAATCTTTCTGTTCAAGCGCCATCTAC | 0.509
60 | GATGATTGTTCTCCCAGCTGATGAATTATCCTCCTCGAGTAAACAAATTTTCCTAATCTTTCTGTTCAAGCGCCATCTAC | 0.291
61 | GATGATTGTTCTCCCAGCTGATGAATTACAACGATCGAGTAAACAAATTTTCCTAATCTTTCTGTTCAAGCGCCATCTAC | 0.511
62 | GATGATTGTTCTCCCAGCTGATGAATTATGGTCCTCGAGTAAACAAATTTTCCTAATCTTTCTGTTCAAGCGCCATCTAC | 0.559
63 | GATGATTGTTCTCCCAGCTGATGAATTCCCCTTCTCGAGTAAACAAATTTTCCTAATCTTTCTGTTCAAGCGCCATCTAC | 0.258
